Assay results published in PubChem BioAssay AID1030 (National Center for Advancing Translational Sciences (NCATS), 2008).
Screen size: about 220,000 compounds; about 16,000 (7.3%) were called active. Inconclusive results, whose numbers are uncertain, are shown with a selection of clear calls. Calls come from the whole dose curve; as a rule, active = well fitted inhibition curve with a large enough effect (not every such curve was filed as active); inconclusive = small, poorly fitted or top-dose-only effect, or another doubt; inactive = no such curve, though single readings can be large or run the other way. Where the call is inconclusive, the potency comes from a doubtful curve fit.

The compounds below were run against Aldehyde dehydrogenase 1A1 (Homo sapiens) (UniProt P00352) (assay: qHTS Assay for Inhibitors of Aldehyde Dehydrogenase 1 (ALDH1A1)). Settings: Purified ALDH1A1, NADH fluorescence, propionaldehyde substrate; series mostly up to 75.3 µM.
Potency is the fitted concentration of half-maximal effect; tags give direction and shape of the fitted curve.

UniProt P00352, sequence (P00352 whole entry, looked up): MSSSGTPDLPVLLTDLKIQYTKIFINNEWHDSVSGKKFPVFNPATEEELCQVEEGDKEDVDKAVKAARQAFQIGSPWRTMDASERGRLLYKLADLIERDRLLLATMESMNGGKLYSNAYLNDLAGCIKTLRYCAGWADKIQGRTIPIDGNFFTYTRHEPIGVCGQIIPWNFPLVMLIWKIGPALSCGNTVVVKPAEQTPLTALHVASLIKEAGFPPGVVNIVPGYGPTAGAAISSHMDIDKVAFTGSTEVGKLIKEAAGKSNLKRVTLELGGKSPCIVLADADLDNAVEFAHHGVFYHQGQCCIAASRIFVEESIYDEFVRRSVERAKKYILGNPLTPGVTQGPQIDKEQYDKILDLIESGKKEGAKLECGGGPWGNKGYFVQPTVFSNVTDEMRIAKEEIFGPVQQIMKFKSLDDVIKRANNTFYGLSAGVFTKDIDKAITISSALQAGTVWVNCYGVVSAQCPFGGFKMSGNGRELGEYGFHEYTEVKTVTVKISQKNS

Potency, inactive:
CCCCC[C@H](O)/C=C/[C@H]1C(=O)C=C[C@@H]1C/C=C\CCCC(=O)O
CC(C)C[C@@H](CC(=O)N[C@H](CC(=O)N[C@@H]1CCNC[C@H]1C(=O)N[C@H](CC(=O)N[C@@H](CCC(=O)O)CC(=O)O)Cc1c[nH]c2ccccc12)C(C)C)NC(=O)[C@@H]1CCCC[C@H]1N
CCCS(=O)(=O)N1CCN=C1SCc1cccc2ccccc12
Cc1oc(-c2ccccc2)cc1C(=O)NC1CCN(Cc2ccccc2)CC1
CC1CC(C)CN(CCC(=O)Nc2ccc3c(c2)CCC3)C1 (configuration not stated)
COc1ccc([N+](=O)[O-])cc1NC(=O)c1ccc(C)o1
O=C(O)c1ccc(-c2nc(-c3ccccc3Cl)cs2)cc1
CC(=O)c1ccc(S(=O)(=O)Nc2cc3c(cc2C(C)=O)OCO3)cc1
Cc1ccc(Cn2nnc3c(=O)n(Cc4cccc(C)c4)cnc32)cc1
O=C(c1ccccc1Cl)N1CCCC(c2nc3c(nnn3Cc3ccccc3)c(=O)[nH]2)C1 (configuration not stated)
Cc1nc(Sc2ccc(Br)cc2)c(C#N)c(C)c1[N+](=O)[O-]
CCn1c2ccccc2c2cc(NC(=O)CSc3nnc(-c4cccc(OC)c4)n3N)ccc21
CN(c1ccc(OCC(=O)OCC(=O)Nc2ccccc2)cc1)S(=O)(=O)c1ccc(F)cc1
Cc1nn(C)cc1CN(C)C(=O)CCc1nnc(CCC2CCCCC2)o1

Potency, active:
O=C(Cc1ccccc1Cl)Nc1nc2ccccc2[nH]1 25.1 µM
Cc1cc(=O)oc2ccc(OCC(=O)N3CCc4ccccc43)cc12 15.8 µM
COCCn1c(C)cc(C2=NNC(=Nc3ccc(OC)cc3)SC2)c1C 10 µM
CCOC(=O)CN1C(=O)C(O)(C2CCc3ccccc3C2=O)c2ccccc21 (configuration not stated) 3.16 µM
CCc1nc(Nc2ccc3c(c2)OCCO3)c2oc3ccccc3c2n1 25.1 µM
Cc1cccc(C)c1OCc1nc2ccccc2c(=O)n1/N=C/c1ccc(OCC(=O)O)cc1 14.1 µM
Cc1ccc2cc(C(c3nnnn3C3CCCC3)N3CCN(c4ccc(F)cc4)CC3)c(=O)[nH]c2c1 (configuration not stated) 11.2 µM
COc1ccc(S(=O)(=O)NCC2CCCN(C(=O)c3occc3C)C2)cc1 (configuration not stated) 4.47 µM
COc1cc([C@H]2Oc3cc([C@H]4Oc5cc(O)cc(O)c5C(=O)[C@@H]4O)ccc3O[C@@H]2CO)ccc1O 14.1 µM
CCc1c(C)nc2ncnn2c1N1CCCC(C(=O)Nc2ccc(NC(C)=O)cc2)C1 (configuration not stated) 12.6 µM
Cc1ccc(C2(C)NC(=O)N(CC(=O)Nc3cccnc3Cl)C2=O)cc1 (configuration not stated) 3.16 µM

Potency, inconclusive:
O=C(CNc1ccccc1)N/N=C/c1ccc2c(c1)OCCO2 10 µM [inhibitor, partial curve]
CCN(CC)C(=O)c1ccc(CS(=O)(=O)c2ccc(OC)cc2)o1 39.8 µM [inhibitor, single point]
CN(C)C(=O)c1ccc(-c2ccc3ncnc(NCc4cccs4)c3c2)cc1 31.6 µM [inhibitor, partial curve]
O=C(Oc1ccc(OC(=O)c2ccco2)c(S(=O)(=O)c2ccc(Cl)cc2)c1)c1ccco1 17.8 µM [inhibitor, single point]
CCOC(=O)C1=C(N2CCCCC2)c2cc3c(n2C1=O)CCCC3 25.1 µM [inhibitor, partial curve]
CC(C)Cc1nc(SCC(=O)Nc2ccc(S(N)(=O)=O)cc2)n[nH]1 35.5 µM [inhibitor, single point]
Cc1cc(N)n(-c2ncnc3scc(-c4ccc(Cl)cc4)c23)n1 22.4 µM [inhibitor, partial curve]
CC(C)Oc1ccccc1/C=N/NC(=O)c1ccc(F)cc1 39.8 µM [inhibitor, partial curve, poor fit]
Cc1ccc(C(=O)/C=C/Nc2ccccc2C(N)=O)o1 23.8 µM [inhibitor, partial curve]
Cc1sc(NC(=O)c2ccc(Cl)s2)c(C(N)=O)c1C 35.5 µM [inhibitor, single point]
CC1(c2ccccc2)NC(=O)N(N)C1=O (configuration not stated) 3.16 µM [inhibitor, full curve]
O=C(CN1CCN(S(=O)(=O)c2ccc(F)cc2)CC1)Nc1ccc2c(c1)OCCO2 35.5 µM [inhibitor, single point]
CCC(=O)Nc1nnc(/C=C/c2ccc(OC)cc2)s1 35.5 µM [inhibitor, single point]
COc1ccc(Cl)c(Cn2c(NCC(C)O)nc3c2c(=O)n(C)c(=O)n3C)c1 (configuration not stated) 39.8 µM [inhibitor, single point]
O=c1c2c(-c3cccs3)csc2ncn1-n1cccc1 39.8 µM [inhibitor, single point]
CNc1nc(-c2cccc(C#N)c2)nc2ccccc12 44.7 µM [inhibitor, single point]
Cc1c(CN(C)C(=O)c2sc3cc(Cl)ccc3c2Cl)cnn1C 28.2 µM [inhibitor, partial curve]
CCCn1c(-c2ccc(F)cc2)nc2c(NCCCN3CCOCC3)nc(C)nc21 28.2 µM [inhibitor, single point]
Cc1cc(=O)[nH]c(N/N=C/c2ccc(N(C)C)cc2)n1 17.8 µM [inhibitor, partial curve]
CN1C(=O)/C(=C2\SC(=S)N(CC3CCCO3)C2=O)c2ccccc21 (configuration not stated) 0.447 µM [inhibitor, single point]
CCN(CC)S(=O)(=O)c1ccc(C)c(NC(=S)Nc2cccc(S(=O)(=O)N3CCCCCC3)c2)c1 28.2 µM [inhibitor, single point]
COc1ccc(N(CC(O)CN2C(=O)NC(C)(C)C2=O)S(=O)(=O)c2ccc(C)cc2)cc1 (configuration not stated) 25.1 µM [inhibitor, partial curve]
COc1ccccc1N1CCN(CC(=O)NCC2CCCO2)CC1 (configuration not stated) 22.4 µM [inhibitor, single point]
CO[C@H]1C=CO[C@@]2(C)Oc3c(C)c(O)c4c(O)c(c(C=NN5CCN(C)CC5)c(O)c4c3C2=O)NC(=O)C(C)=CC=C[C@H](C)[C@H](O)[C@@H](C)[C@@H](O)[C@@H](C)[C@H](OC(C)=O)[C@@H]1C 39.8 µM [inhibitor, single point]
CC(C)(C)C1(O)CC(C(F)(F)F)=NN1C(=O)CCc1ccccc1 (configuration not stated) 39.8 µM [inhibitor, single point]
CCNc1ncc2nc(-c3ccc(F)cc3)c(=O)n(CCC#N)c2n1 0.398 µM [inhibitor, full curve]
COc1cc(OC)cc(-c2nc(-c3cccs3)no2)c1 31.6 µM [inhibitor, partial curve]
COC(=O)c1cc(N=CC2=C(O)CC(C)(C)CC2=O)cc(C(=O)OC)c1 20 µM [inhibitor, partial curve]
CCCCN(CC)Cc1ccc(CNC(=S)Nc2ccc(C)cc2Cl)o1 28.2 µM [inhibitor, single point]
CC1=NN(c2ccccc2)C(=O)/C1=C/C=C/c1ccccc1 25.1 µM [inhibitor, partial curve]
Cc1nnc(SCC(=O)NC2CCS(=O)(=O)C2)n1Cc1ccccc1 (configuration not stated) 25.1 µM [inhibitor, single point]
C=CCn1c(=O)c2ccccc2n2c(Sc3nnnn3-c3ccccc3)nnc12 35.5 µM [inhibitor, single point]
Cc1cc(C)c2nc(N3CCC(C(=O)N4CCN(c5ncccn5)CC4)CC3)sc2c1 14.1 µM [inhibitor, partial curve, poor fit]
COc1cc(OC)nc(NC(=O)COC(=O)C2CCCCC2)n1 22.4 µM [inhibitor, partial curve]
Cc1ccc(S(=O)(=O)N2CCC(NC(=O)c3ccccc3)CC2)cc1 12.6 µM [inhibitor, single point]
COCCn1c(SCC(=O)NCCc2ccc(OC)c(OC)c2)nc2c([nH]c3ccccc32)c1=O 39.8 µM [inhibitor, single point]
CCOCCCn1c(SC(C(=O)Nc2cc(C)ccc2C)c2ccccc2)nnc1-c1ccc(Cl)cc1 (configuration not stated) 25.1 µM [inhibitor, single point]
COc1ccccc1OCCN(C#N)c1nc(N(C)C)nc(N(C)C)n1 39.8 µM [inhibitor, single point]
O=C(CCSCCc1ccccn1)Nc1ccc(Br)cc1F 22.4 µM [inhibitor, partial curve]
CCOc1ccc(NC(=S)N(CCN2CCOCC2)Cc2cc3cc4c(cc3[nH]c2=O)OCCO4)cc1 35.5 µM [inhibitor, single point]
CCCc1cc(=O)[nH]c(SCC(=O)N2CCN(S(=O)(=O)c3ccc(Cl)cc3)CC2)n1 39.8 µM [inhibitor, single point]
COc1cc(NC(=O)c2cc(Cl)ccc2Cl)ccc1-c1cc2ccccc2oc1=O 39.8 µM [inhibitor, single point]
